We go through 58 molecules from publication PMC4336329 (PLoS ONE, 2015).

In all, about 310,000 compounds went through this assay and about 2,200 (0.71%) showed an effect of 50% or more. Effects have a minus sign here. The list shows a part of the results.

human ether-à-go-go-related gene (hERG) potassium channel, sequence (Q12809 whole entry, looked up): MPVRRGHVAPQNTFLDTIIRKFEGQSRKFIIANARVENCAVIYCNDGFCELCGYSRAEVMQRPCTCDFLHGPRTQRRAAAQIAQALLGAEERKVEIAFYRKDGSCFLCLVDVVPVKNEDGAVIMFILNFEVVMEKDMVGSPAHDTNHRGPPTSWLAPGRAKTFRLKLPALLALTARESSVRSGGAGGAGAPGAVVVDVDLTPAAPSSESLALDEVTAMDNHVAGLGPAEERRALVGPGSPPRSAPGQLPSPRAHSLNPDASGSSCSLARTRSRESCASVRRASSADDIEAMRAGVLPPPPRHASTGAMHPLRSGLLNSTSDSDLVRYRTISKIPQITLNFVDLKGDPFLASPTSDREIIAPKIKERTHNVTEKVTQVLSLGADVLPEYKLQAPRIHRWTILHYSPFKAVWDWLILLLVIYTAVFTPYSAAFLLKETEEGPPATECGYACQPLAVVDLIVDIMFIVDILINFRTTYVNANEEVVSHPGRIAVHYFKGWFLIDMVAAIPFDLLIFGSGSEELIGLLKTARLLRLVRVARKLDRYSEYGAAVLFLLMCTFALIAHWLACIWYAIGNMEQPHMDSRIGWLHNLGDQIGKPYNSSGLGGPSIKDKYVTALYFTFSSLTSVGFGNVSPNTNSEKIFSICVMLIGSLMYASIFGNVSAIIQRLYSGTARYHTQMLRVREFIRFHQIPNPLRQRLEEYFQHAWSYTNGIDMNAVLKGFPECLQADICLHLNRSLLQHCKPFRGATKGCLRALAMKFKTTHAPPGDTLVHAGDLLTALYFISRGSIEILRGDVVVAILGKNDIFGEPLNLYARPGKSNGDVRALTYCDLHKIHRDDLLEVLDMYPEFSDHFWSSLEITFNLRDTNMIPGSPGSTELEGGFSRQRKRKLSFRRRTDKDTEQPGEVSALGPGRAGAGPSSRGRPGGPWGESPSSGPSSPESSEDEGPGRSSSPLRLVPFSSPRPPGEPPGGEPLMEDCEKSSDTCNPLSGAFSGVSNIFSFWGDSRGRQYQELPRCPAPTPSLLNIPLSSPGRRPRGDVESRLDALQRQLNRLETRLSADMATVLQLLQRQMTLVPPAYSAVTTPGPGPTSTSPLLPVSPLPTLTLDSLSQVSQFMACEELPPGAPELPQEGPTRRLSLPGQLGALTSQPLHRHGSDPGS

The test concerns the target human ether-à-go-go-related gene (hERG) potassium channel (human, UniProt Q12809). Briefly: primary screen, population patch clamp on CHO cells stably expressing hERG.
Regarding `COc1ccc(-n2c(-c3ccccc3[N+](=O)[O-])nc3ccccc3c2=O)cc1`, the “hERG current change (%, negative = inhibition) at 1uM” value was 0.235%.
As to `CCc1ccc(N2CC(C(=O)OCC(=O)Nc3ccc(C#N)cc3)CC2=O)cc1` (stereo not shown), the “hERG current change (%, negative = inhibition) at 1uM” value is listed as -25.3%.
Regarding `O=C1SC(SCc2ccccc2Cl)=N/C1=C\c1ccc(C(=O)O)cc1`, the “hERG current change (%, negative = inhibition) at 1uM” value turned out to be 8.26%.
As for `CCOC(=O)CC(=O)CSc1nc2ccc(OC)cc2cc1C`, the figure is 12.6%; as for `O=C(c1cc(-c2ccncc2)nc2ccc(Cl)cc12)N1CCN(C(=O)C2CCCO2)CC1` (stereo not shown), 4.95%.
With `CCCCC(=O)Nc1nnc(C2=COCCO2)o1`, the “hERG current change (%, negative = inhibition) at 1uM” value was 11.2%.
The result for `S=C(NCc1cccs1)Nc1ccc(Br)cc1Cl` reads 11.5%.
As for `O=C(CCS(=O)(=O)c1ccccc1)Nc1ccc2c(c1)OCO2`, the “hERG current change (%, negative = inhibition) at 1uM” value is 7.88%.
With `CC1Cc2ccccc2N1C(=O)CSc1nnnn1C1CCCC1` (stereo not shown), the “hERG current change (%, negative = inhibition) at 1uM” value is reported as -5.89%.
The result for `O=S(=O)(NCCN1CCOCC1)c1cc(Cl)ccc1Cl` reads 11.3%; that for `Cc1nc(-c2cccnc2)sc1C(=O)N/N=C/c1ccccc1Cl`, 1.54%; that for `OC(CN1CC=C(c2ccccc2)CC1)c1ccccc1` (stereo not shown), 7.39%.
Consider `CS(=O)(=O)c1ccc(Cl)c(NC(=O)CCl)c1`, for which the “hERG current change (%, negative = inhibition) at 1uM” value is given as 19.7%.
The result for `CCOc1ccc(/C=C/C(=O)N(CC)CC(=O)NCc2cccs2)cc1OC` reads 7.65%.
The result for `NC(=S)Nc1ccc(Cl)cc1Cl` reads 12.3%; that for `Cc1cc(N2CCN(c3ccccc3)CC2)n2c(n1)nc1ccccc12`, -42%.
Turning to `CN1CCN(c2ccc(NC(=O)CSc3ccccc3)cc2F)CC1`, the “hERG current change (%, negative = inhibition) at 1uM” value is recorded as -35.3%.
As for `Cc1cc(Br)ccc1OCC(=O)NNC(=O)c1cnccn1`, the figure is 11.9%; as for `O=C(Nc1nnc(C2=COCCO2)o1)c1ccc(S(=O)(=O)N2CCOCC2)cc1`, 12.6%; as for `O=C(COC(=O)CCc1ccccc1)NC12CC3CC(CC(C3)C1)C2`, 3.43%.
The result for `COc1ccc(NS(=O)(=O)c2ccc3c(c2)OCCO3)cc1OC` reads 15.2%; that for `CCCCn1c(SCc2c(C)noc2C)nc2cc(S(N)(=O)=O)ccc21`, -2.73%; that for `Cc1nc2sc(C(c3cccc(F)c3)N3CCC(O)CC3)c(O)n2n1` (stereo not shown), 8.15%.
The result for `CC1CCSP(=O)(Oc2ccccc2)O1` (stereo not shown) reads 8.97%; that for `COc1ccc(C)cc1S(=O)(=O)N1CCN(C(=O)c2ncoc2-c2cccc(C)c2)CC1`, 13%; that for `CCN(CC)C(=O)c1sc(NC(=O)C(Sc2ccccc2)c2ccccc2)c(C(=O)OC(C)C)c1C` (stereo not shown), 10.8%.
Regarding `COc1ccccc1NC(=O)C/C(N)=N/O`, the “hERG current change (%, negative = inhibition) at 1uM” value is recorded as 3.05%.
With `COc1cc(S(=O)(=O)n2ccc(C)n2)c(OC)cc1Cl`, the “hERG current change (%, negative = inhibition) at 1uM” value was 9.61%.
Consider `CCOCCCNC(=O)Cn1cnc2c(cnn2-c2ccc(F)cc2)c1=O`, for which the “hERG current change (%, negative = inhibition) at 1uM” value is given as 2.63%.
On to `COC(=O)C(NC(=O)c1ccccc1Cl)(Nc1ncc(S(=O)(=O)c2ccc([N+](=O)[O-])cc2)s1)C(F)(F)F` (stereo not shown), for which the “hERG current change (%, negative = inhibition) at 1uM” value was found to be 6.15%.
As for `Cc1cc(C)cc(NS(=O)(=O)c2ccc3[nH]cc(C(=O)NCc4ccco4)c(=O)c3c2)c1`, the figure is -6.66%; as for `CCNC(=S)Nc1cc2oc3ccccc3c2cc1OC`, 10.7%; as for `COc1ccc(C(=O)C2CCCN(Cc3cccn3-c3ccccn3)C2)cc1F` (stereo not shown), -87.1%.
As to `Fc1ccc(C2CCCN2Cc2nc(Cc3ccccc3)no2)cc1` (stereo not shown), the “hERG current change (%, negative = inhibition) at 1uM” value is reported as 8.24%.
In the case of `N#Cc1c(NC(=O)c2ccco2)sc2c1CCC2`, the “hERG current change (%, negative = inhibition) at 1uM” value is given as -10.5%.
For the molecule `O=C(Oc1c(-c2ccccc2)oc2ccccc2c1=O)c1ccccc1`, the “hERG current change (%, negative = inhibition) at 1uM” value was -2.89%.
As for `COc1ccc(C(CNC(=O)c2cc3ccccc3o2)N2CCCC2)cc1` (stereo not shown), the figure is 3.52%; as for `Cc1cc2c(cc1C)C(c1ccccc1Br)CC(=O)N2` (stereo not shown), 13.7%.
The result for `CS(=O)(=O)N1CCC(Oc2ccccc2C(=O)NC(C2CC2)C2CC2)CC1` reads -12.8%; that for `Nc1nc2c(ncn2[C@H]2C[C@H](O)[C@@H](CO)O2)c(=O)[nH]1.O`, 9.22%.
The result for `O=C(Nc1nnc(C2=COCCO2)o1)c1cccc(F)c1` reads 18.3%.
Regarding `Cc1ccc(CN(C(=O)c2csnn2)C(C(=O)NC2CCCC2)c2ccco2)cc1` (stereo not shown), the “hERG current change (%, negative = inhibition) at 1uM” value stood at 1.26%.
For the molecule `O=C(COC(=O)C1C2CC3OC(=O)C1C3C2)Nc1cccc(Cl)c1` (stereo not shown), the “hERG current change (%, negative = inhibition) at 1uM” value was 2.31%.
As for `CCOC(=O)c1cc(C)nc(SC)c1C#N`, the figure is 10.3%.
The result for `O=C(Cn1cc([N+](=O)[O-])cn1)N1CCCc2ccccc21` reads 8.12%; that for `COc1ccccc1CC(NC(C)=O)C(=O)NC1CCN(C(=O)Nc2ccccc2C)CC1` (stereo not shown), 1.1%; that for `CC(=O)c1ccc(OCC(=O)N(C2CCCCC2)C2CCS(=O)(=O)C2)cc1` (stereo not shown), 7.85%.
Consider `O=C(Cn1ccccc1=S)c1ccc(Cl)c(Cl)c1`, for which the “hERG current change (%, negative = inhibition) at 1uM” value amounted to 9.54%.
With `O=C(NC(=S)Nc1ccccc1O)c1ccc(-c2ccc(Cl)cc2)o1`, the “hERG current change (%, negative = inhibition) at 1uM” value amounted to 10.6%.
The result for `CCOc1ccc2nc(NC(=O)CN3CCC(n4nnc5cc(F)ccc54)CC3)sc2c1` reads 12.9%.
The result for `COC(=O)c1ccc(COc2cc(C)ccc2C)o1` reads 16.8%; that for `CCOc1ccc(S(=O)(=O)NCCOC)cc1C`, 14.6%; that for `COc1ccc(S(=O)(=O)Nc2ccc(Cl)cn2)c(C)c1C`, 9.74%.
For the molecule `COc1ccc2c(C)cc3nncn3c2c1`, the “hERG current change (%, negative = inhibition) at 1uM” value amounted to 16.4%.
As for `O=C(CCCn1c(=O)[nH]c2ccccc2c1=O)N1CCN(c2ccccn2)CC1`, the figure is 15.5%; as for `Cc1ccc(-c2csc(N3CCC[C@@H]3C(=O)NCCn3c(C(F)(F)F)nc4ccccc43)n2)cc1`, 8.6%.
As for `Cn1nccc1C(=O)NC1CCCc2c1cnn2-c1ccccc1F` (stereo not shown), the “hERG current change (%, negative = inhibition) at 1uM” value came to 19.2%.
Regarding `CC(=O)OCc1c(-c2ccccc2)c2cc([N+](=O)[O-])ccc2n1C`, the “hERG current change (%, negative = inhibition) at 1uM” value is given as 13.4%.
